# Measured values taken from PMC12040169 (PLOS Biology, 2025).
# Some of the results follow.
# Test system: T1, C. trachomatis L2/434/Bu expressing GFP (CTL2-GFP)
# T1 construct: L2/434/Bu GFP intracellular growth in HeLa cells
# Set-up: species or system HeLa; C. trachomatis total inclusion area by high-content imaging, normalised to DMSO
# Details: total inclusion area; 28.5 h, 10 µM; inhibitor
# Summary of the method: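 After bulk GFP and resorufin fluorescence reads, cells were fixed, stained with Hoechst and imaged by high-content microscopy. Inclusion area and number (GFP) stood in for chlamydial growth, nuclei count (Hoechst) for host cell viability. MICs were derived as for the bulk readout.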
row,Structure (SMILES),% of control remaining
1,O=C(CCCc1c[nH]c2ccccc12)N1CCn2c(nnc2C2CC2)C1 [CBK283689],109.552
2,CC(C)(O)C(=O)NCc1nc2c(s1)CC(c1ccccc1)CC2 (stereo not drawn) [CBK304165],120.153
3,Cn1cc(-c2nccnc2OCCOc2ccccc2)cn1 [CBK107080],104.621
4,CN(C)Cc1cc(C[C@@H]2C[C@H](NC(=O)c3ccnc(Cl)c3)C2(C)C)no1 [CBK289311],105.468
5,COc1nccnc1-c1ccc(C)c(C)c1 [CBK106853],101.83
6,Cc1nc2ccc(C(=O)N(C)Cc3ccco3)cn2c1N(C)C=O [CBK145482],92.0966
7,O=S(=O)(Cc1cc(Cl)ccc1F)N1CCN(CCO)CC1 [CBK306385],67.8957
8,CC(NC(=O)c1cc2ccc(N(C)C)cc2[nH]1)c1ccccn1 (stereo not drawn) [CBK281821],104.261
9,Cc1cc(C)n(CC(=O)NC(CC(=O)O)c2ccccc2Cl)n1 (stereo not drawn) [CBK305695],79.746
10,CCOC(=O)C1=C(C)Nc2nc(C)nc(Cl)c2O1 [CBK021504],133.198
11,CC(=O)N[C@H]1C[C@@H](Cc2cc(CCO)on2)C1(C)C [CBK289243],112.866
12,O=C(CSc1n[nH]c(=O)n1Cc1ccccc1)NCc1ccc(-c2ccc(Cl)cc2)o1 [CBK296963],53.2855
13,CCC(CC)C(=O)N1CCCC1c1n[nH]cc1-c1ccncc1 (stereo not drawn) [CBK283467],101.567
14,N#CCCn1cc(C(=O)N2CCOCC2)c(-c2cccs2)n1 [CBK306195],66.9204
15,O=C1/C(=C/NNc2nc3ccccc3s2)Sc2ccccc21 [CBK261627],91.9856
16,O=C(CCc1ccccc1)Nc1cccc(N2C(=O)C3C4c5ccccc5C(c5ccccc54)C3C2=O)c1 (stereo not drawn) [CBK265409],107.294
17,CCOC(=O)N1CCN(S(=O)(=O)c2ccc3c(c2)oc(=O)n3CC)CC1 [CBK305055],67.5151
18,CCOC(=O)CC1=C(C(=O)OCC)C(c2ccccc2C(F)(F)F)C(C#N)=C(N)O1 (stereo not drawn) [CBK262710],87.3269
19,NC(=O)CN1CCC(Oc2nccnc2OCc2ccc(Cl)c(Cl)c2)CC1 [CBK083110],93.0625
20,CN1CCN(C(=O)c2sccc2NS(=O)(=O)c2ccc3ccccc3c2)CC1 [CBK004631],84.7515
21,Cc1ccc(S(=O)(=O)Nc2cccc(C(=O)N3CCN(C)CC3)c2)cc1[N+](=O)[O-] [CBK038976],91.8058

row,Structure (SMILES),% of control remaining
1,O=C(NCc1csc2c1CCCC2)N1CCCC(c2cc(O)ncn2)C1 (stereo not drawn) [CBK306705],62.1394
2,CCc1cc(=O)oc2cc(OCC(=O)O)c(Cl)cc12 [CBK265182],100.013
3,CCN(CC)C(=O)CN1C(=O)N2CCCN=C2c2ccccc21 [CBK284398],72.2299
4,O=C(O)CSc1ccc(Oc2ccc(SCC(=O)O)cc2)cc1 [CBK261254],101.591
5,COc1ccc2c(c1OC)C(=O)N(c1cccc(/C=C/C(=O)O)c1)C2 [CBK109932],87.7998
6,c1ccc(CCN2CCC(N3CCOCC3)CC2)cc1 [CBK261928],102.23
7,CCOc1ccc2ccccc2c1CNCCc1ccc(S(N)(=O)=O)cc1 [CBK268732C],88.5992
8,O=C(c1ccc(C#CC2(O)CCCCC2)cc1)N1CCN(Cc2ccccc2)CC1 [CBK263094],90.2473
9,N#Cc1ccc(CN2CCC(NC3CCCn4nccc43)C2=O)cc1 (stereo not drawn) [CBK304770],111.896
10,O=C(O)CC(NS(=O)(=O)c1cccc([N+](=O)[O-])c1)c1ccccc1 (stereo not drawn) [CBK262641],105.897
11,COc1c(Br)cc(/C=C2\SC(=O)NC2=O)cc1Br [CBK102455],98.3136
12,CC1CCCC(C)N1CC(O)COc1ccc(/N=C/c2ccccc2O)cc1 (stereo not drawn) [CBK261748],99.0136
13,CN(C)C(=O)CCCN1C(=O)CC2(C1=O)C(=O)N(C)c1ccc(F)cc12 (stereo not drawn) [CBK075380],80.303
14,CC(C)(C)OC(=O)N1CCC(CNCc2cc(F)cc(F)c2)CC1 [CBK056715],88.4768
15,COc1ccc(C(NC(=O)c2ccc(Cn3cncn3)cc2)c2ccccc2)cc1 (stereo not drawn) [CBK285749],89.0165
16,Cc1cc(Cl)ccc1OC(C)C(=O)Nc1cc(C(=O)O)cc(C(=O)O)c1 (stereo not drawn) [CBK266483],138.606
17,c1ccc(Nc2nc(-c3ccc4c(c3)OCO4)cn3ccnc23)cc1 [CBK037494],96.6619
18,Cc1cc(C)c2c(n1)oc1c(NC(C)C)ncnc12 [CBK287917],75.8616
19,CCOC(=O)C1(Cc2cc(-c3ccccc3)no2)CCCNC1 (stereo not drawn) [CBK284583],66.2195
20,OC(CCNC1CCCCC1)(c1ccccc1)c1ccccc1 [CBK013339],64.9448
21,O=C(COc1ccc(C2CCCCC2)cc1)Nc1cccc(-c2nc3ncccc3o2)c1 [CBK264569],119.879

row,Structure (SMILES),% of control remaining
1,Cn1cc(CCC(=O)N2CCN(Cc3ccccn3)CC2)cn1 [CBK305094],38.9897
2,Clc1ccccc1COc1cccc(/C=N/Nc2nc(N3CCCC3)nc(N3CCCC3)n2)c1 [CBK019076],85.0242
3,Cc1[nH]c2ccccc2c1-c1csc(-c2ccncc2)n1 [CBK264371],95.8315
4,CC(C)(C)OC(=O)NCCNC(=O)Nc1ccccc1C(F)(F)F [CBK056940],126.449
5,O=[N+]([O-])c1cc(F)ccc1Oc1cccc(C(F)(F)F)c1 [CBK002802],17.3616
6,Cc1ccc(C(=O)NCCNC(=O)CN2CCCC2)cc1 [CBK264103],96.2575
7,CCOC(=O)N1CCC(NC(=O)N(CCN(C)C)Cc2ccccc2)CC1 [CBK155121],90.2912
8,S=C1NCN(Cc2ccc3c(c2)OCO3)CN1 [CBK267899],98.3924
9,CC(C)C(=O)Nc1cc2cccnc2c(-c2ccsc2)n1 [CBK081259],99.3184
10,CCn1c2cc(C)sc2c2cnn(CC(=O)NC(C)(C)C)c(=O)c21 [CBK284152],85.8365
11,O=C(c1cc(-c2ccc(Cl)cc2)nc2ccccc12)n1nnc2ccccc21 [CBK264640],98.0106
12,CNC(=O)c1ccc(NC(=O)CC(C)(C)CC(=O)O)cc1 [CBK296615],97.7066
13,CCCCC(=O)N(C)c1c(C)nc2ccc(C(=O)Nc3ccc(C(N)=O)cc3)cn12 [CBK147066],77.6577
14,Cc1ccc(OCC(=O)Nc2sc3c(c2C#N)CCCC3)cc1 [CBK263548],98.8564
15,COC(=O)c1c(NS(=O)(=O)c2cccc(Cl)c2)csc1C [CBK026678],107.414
16,Cn1c(CNC(=O)c2ccc(Cl)cc2)nnc1SCC(=O)c1ccc(Br)cc1 [CBK266145],119.398
17,O=C(C1c2ccccc2Oc2ccccc21)N1C2CCC1CC(O)(c1ccco1)C2 (stereo not drawn) [CBK286169],81.3428
18,CCS(=O)(=O)N1C2CCC(C2)[C@H]1COc1ccc(F)cc1 (stereo partly drawn) [CBK285280],74.9773
19,O=C(O)c1cccc(-c2cncc(NCCCN3CCOCC3)n2)c1 [CBK037850],95.9825
20,O=C(Nc1ccc(N2CCN(Cc3ccccc3)CC2)cc1)c1nc[nH]n1 [CBK266960],77.0113
21,Nc1nonc1-n1cc(CN2CCCCC2)nn1 [CBK307044],20.5281

row,Structure (SMILES),% of control remaining
1,C=CCn1c(SCC(=O)Nc2cccc(C(F)(F)F)c2)nnc1C12CC3CC(CC(C3)C1)C2 [CBK266054],88.3587
2,OCCCc1nc2ccccc2n1CCOc1ccccc1 [CBK297728],91.9052
3,COc1ccc(C(=O)Nc2ccccc2C(=O)Nc2cccc([N+](=O)[O-])c2)cc1 [CBK265894],105.089
4,CC1CN(C(=O)CCn2c(C(F)F)cc3cccnc32)CC(C)O1 (stereo not drawn) [CBK284984],130.665
5,Cc1cccc2cc3c(nc12)OCCN(C)C3 [CBK285192],108.301
6,Cc1cc(COc2ccnc(N3CCCN(CCCC#N)CC3)n2)no1 [CBK084144],93.4199
7,CC(C(=O)N1CCCC(COc2ccc(F)cc2)C1)n1ccnc1 (stereo not drawn) [CBK282027],85.082
8,Cc1ccccc1OCC(=O)Nc1ccc(C(=O)O)c(Cl)c1 [CBK287027],102.158
9,CN(C(=O)CN1CCN(c2cc(-c3cccc4oc5ccccc5c34)ncn2)CC1)c1ccccc1 [CBK091130],141.279
10,CC(C)C(=O)Nc1cc2ccccc2c(-c2cccc(C(F)(F)F)c2)n1 [CBK085738],72.4497
11,CN1CCN(S(=O)(=O)c2ccc(Oc3ccccc3)cc2)CC1 [CBK062430],110.229
12,CN1CCCN(c2cncc(-c3cccc(OC(F)(F)F)c3)n2)CC1 [CBK065949],69.293
13,O=C(NCC1CCCCC1)C1(Cc2cccc(-c3cccnc3)c2)CCOCC1 [CBK285607],105.53
14,O=C(Nc1cccc(Cl)c1)N(Cc1ccncc1)CC1CCCO1 (stereo not drawn) [CBK305362],105.628
15,Cc1nc(SCC(=O)NCC2CCCOC2)oc1C (stereo not drawn) [CBK282195],98.5637
16,COc1ccc(S(=O)(=O)N(C)CC(=O)Nc2cccc(F)c2)cc1Cl [CBK267882],96.3132
17,CNC(=S)N1CCN(c2nccnc2NS(=O)(=O)C2CC2)CC1 [CBK048905],73.5251
18,CC(=O)NC[C@H]1CN(c2ccc(C3CNC3)c(F)c2)C(=O)O1 [CBK013035],43.8494
